Experimental data: PubChem BioAssay AID1346428 (National Center for Advancing Translational Sciences (NCATS), 2018)
About 1,200 (2.5%) of roughly 48,000 compounds were called active. Inconclusive results (about 2%) are left out.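 Rule for the calls: active = activation of at least 60% and not above a set upper limit (about 1 call in 100 departs from these limits); inconclusive = activation of 40% to 60%, or above that upper limit; inactive = activation under 40%.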 The list shows a part of the results.

biological target: Probable G-protein coupled receptor 32 (Homo sapiens) (UniProt O75388); assay: qHTS for Agonists of Human Resolvin D1 Receptor DRV1; settings: CHO-K1 GPR32 beta-arrestin PathHunter luminescence, 90 min; at 76.9 µM; hits give high values; zero percent set by DMSO-only wells; note: 0% is about no effect
Chain of UniProt O75388 (O75388 whole entry, looked up): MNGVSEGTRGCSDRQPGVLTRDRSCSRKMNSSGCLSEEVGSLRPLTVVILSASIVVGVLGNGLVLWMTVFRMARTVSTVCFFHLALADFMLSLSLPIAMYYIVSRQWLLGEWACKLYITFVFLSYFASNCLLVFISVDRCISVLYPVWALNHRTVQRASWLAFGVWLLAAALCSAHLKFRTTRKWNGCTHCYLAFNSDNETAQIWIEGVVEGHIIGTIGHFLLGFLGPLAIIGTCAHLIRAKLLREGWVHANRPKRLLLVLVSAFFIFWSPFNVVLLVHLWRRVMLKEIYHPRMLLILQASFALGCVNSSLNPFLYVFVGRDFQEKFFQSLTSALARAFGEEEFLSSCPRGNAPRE
Procedure, shortened: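 CHO-K1 cells stably expressing ProLink-tagged GPR32 and Enzyme Activator-tagged beta-arrestin were seeded at 2,500 cells/well overnight, exposed to compounds for 90 min at 37 °C, then read by beta-Gal complementation chemiluminescence after 1 h detection reagent.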

activation, inactive:
Cc1cc(C)c(S(=O)(=O)Nc2cccc(-c3cn4ccccc4n3)c2)c(C)c1 -9.89%
O=C(C1CC1)N1CCc2cc(Br)cc(S(=O)(=O)N3CCN(c4ccccc4F)CC3)c21 -8.77%
Cc1ccc(N2CC(NC(=O)/C=C\c3ccc4c(c3)OCO4)CC2=O)cc1 (centres undefined) -0.258%
COc1ccc(CNC(=O)Cn2ccc3cc(S(=O)(=O)N4CCCCCC4)ccc32)c(OC)c1 -6.35%
COc1ccc(Oc2nc3c(c(=O)n(Cc4ccccc4Cl)c(=O)n3C)n2C)cc1 15.5%
COC(=O)c1c(SCC(=O)Nc2ccccc2OC)[nH]c2ccccc2c1=O -20.7%
Cc1cc2ccccc2n1-c1ccc(C(=O)N2CCC(C(=O)NCc3ccc(F)cc3)CC2)s1 -9.18%
CC(C)n1c(=O)c2oc3ccccc3c2n(Cc2ccccc2F)c1=O -9%
Cc1ccc(-c2nnc(Nc3ccc(O)cc3)c3ccccc23)cc1S(=O)(=O)NCC1CCCO1 (centres undefined) -56.7%
O=C(/C=C/c1ccco1)Nc1ccc(Cl)c(-c2nc3cc(Cl)ccc3o2)c1 -29.3%
Cc1ccc(NC(=O)C2CCN(c3nn4c(=O)cc(C)nc4s3)CC2)cc1 -18.2%
Cc1c(Cl)cccc1NC(=O)CSc1cc(-c2ccccc2)ncn1 -7.67%
COc1cccc(NC(=O)c2ccc(CNS(=O)(=O)c3ccc4c(c3)C(C)(C)C(=O)N4C)cc2)c1 -4.86%
CC12CN3CC(C)(CN(C1)C3c1ccc(OCc3ccccc3)cc1)C2=O (centres undefined) 6.63%
CCOC(=O)c1cccc(NC(=O)CCNS(=O)(=O)c2cccc3nonc23)c1 -14.3%
CN(C)c1cccc(C(=O)Nc2ccc(-c3nc4ccccc4s3)cc2)c1 -3.87%
O=c1cc(CO)occ1O -20.5%
O=C(CSc1nc2c(oc3ccccc32)c(=O)[nH]1)Nc1cccc(Cl)c1 3.74%
CC1=C(c2ccc(Cl)cc2)S(=O)(=O)NC1=NCc1ccc(C)cc1 -10.5%
COc1ccc(-c2nc3scc(CCNS(=O)(=O)c4cccc(C(C)=O)c4)n3n2)cc1 -8.68%
Cc1ccc(CCNC(=O)c2ccc(CSCc3ccc(C)cc3)o2)cc1 -10.2%
CCOC(=O)c1ccc(NC(=O)c2cc3c(n(-c4ccc(C)cc4)c2=O)CC(C)(C)CC3=O)cc1 -2.36%
Cn1c(C(=O)N2CCC(C(=O)NCCc3ccc(S(N)(=O)=O)cc3)CC2)cc2sccc21 -13.3%
CCc1ccc(NC(=O)Cn2c(=O)ccc3cc(S(=O)(=O)N4CCCC4)ccc32)cc1 13%
Cc1ccc(NC(=O)CSc2nnc(C)c(=O)[nH]2)cc1 -5.48%
CCCOc1ccccc1C(=O)N1CCCCC1CCN1CCCCC1 (centres undefined) -14.7%
CN1CC(=O)N2[C@H](c3ccc4c(c3)OCO4)c3[nH]c4ccccc4c3C[C@@H]2C1=O -4.13%
CCc1ccc(-n2nc(C)c3c(C(=O)Nc4ccc(Cl)cc4)cc(C)nc32)cc1 -0.39%
CCCCNC(=O)CSc1nc(-c2ccc(OC)cc2)cc(C(F)(F)F)n1 -5.93%
Cc1ccc(C)c(-c2ccc(=O)n(C(C)C(=O)Nc3ccccc3C(F)(F)F)n2)c1 (centres undefined) -8.22%
CCC(=O)N1c2ccccc2CC1C(=O)NCCc1ccccc1OC (centres undefined) -12.4%
O=C(NC1CC(=O)N(c2cccc(F)c2)C1)c1ccc(S(=O)(=O)N2CCCCC2)cc1 (centres undefined) -2.03%
COc1ccc(OC)c(-n2nnc(-c3nc(-c4ccc5c(c4)OCO5)no3)c2C)c1 -19.9%
COc1ccc(C(=O)Nc2cc(-c3nc4ncccc4o3)ccc2C)cc1Br 3.78%
COC(=O)c1ccccc1NC(=O)CCn1c(=O)c2cccn2c2cccnc21 -3.9%
Cc1ccc(OCC(=O)Nc2nnc(SCc3cc(=O)n4cc(C)ccc4n3)s2)cc1 -6.03%
Cc1noc(-c2ccc(N(C)Cc3ccccc3)c([N+](=O)[O-])c2)n1 0.997%
CC(=O)Nc1ccc(C)cc1-c1nc2ccccc2n(Cc2cccc(Br)c2)c1=O 0.251%
COc1ccc(OCc2nc(-c3ccc(OC)c(OC)c3)no2)cc1 10.8%
CC(=O)Nc1c(C)nn(-c2ccccc2)c1N1CCC(C(=O)Nc2ccc(C)cc2Cl)CC1 -6.16%
COc1ccc(CCNc2oc(/C=C/c3ccc(OC)c(OC)c3)nc2C#N)cc1 0.937%
CCc1ccc(NS(=O)(=O)c2cc(Br)cc3c2N(C(C)=O)CC3)cc1 -5.02%
CC(=O)Nc1ccc(NC(=O)c2ccc3c(c2)CCN3S(=O)(=O)c2ccc(Cl)cc2)cc1 8.31%
CCOC(=O)C1CCCN(C(=O)c2ccc(C)c(NC(=O)c3nsc4ccccc34)c2)C1 (centres undefined) -10.3%
COc1cccc(NC(=O)CSc2nnc3[nH]c(=O)cc(-c4ccccc4)n23)c1 -7.07%
C1CCC(C(CC2CCCCN2)C2CCCCC2)CC1 (centres undefined) 38.3%
CCCc1nc2nc(C)c(NS(=O)(=O)c3ccc(C)c(C)c3)c(=O)n2[nH]1 5.6%
CC(=O)c1ccc(NC(=O)C2CCCN(S(=O)(=O)c3ccc(Br)s3)C2)cc1 (centres undefined) 2.64%
CCOC(=O)C1CCN(c2nc3c(S(=O)(=O)c4ccc(CC)cc4)nnn3c3ccc(Cl)cc23)CC1 -13.4%
Cc1cccn2c(=O)c3cc(C(=O)NC(C)(C)C)n(C)c3nc12 -1.57%
Cc1cc(Cl)ccc1NC(=O)CS(=O)(=O)c1cccc2nsnc12 -7.39%
CCOC(=O)c1ccc(NC(=O)C2CCN(S(=O)(=O)Cc3ccccc3)CC2)cc1 -19.6%
CCOc1ccc(NC(=O)c2sc3nc4n(c(=O)c3c2C)CCCC4)cc1 12.3%
Cc1cc(C)cc(NC(=O)CSc2oc(-c3cccs3)nc2S(=O)(=O)c2ccc(Br)cc2)c1 -0.312%
